# Source: the BET-seq Pho4 binding data (Le et al. 2018)
# The list shows a part of the results. Values were computed here from the reads of four pooled replicates and scatter widely.
# Target: T1, Pho4 (S. cerevisiae) (UniProt P07270)
# T1 sequence: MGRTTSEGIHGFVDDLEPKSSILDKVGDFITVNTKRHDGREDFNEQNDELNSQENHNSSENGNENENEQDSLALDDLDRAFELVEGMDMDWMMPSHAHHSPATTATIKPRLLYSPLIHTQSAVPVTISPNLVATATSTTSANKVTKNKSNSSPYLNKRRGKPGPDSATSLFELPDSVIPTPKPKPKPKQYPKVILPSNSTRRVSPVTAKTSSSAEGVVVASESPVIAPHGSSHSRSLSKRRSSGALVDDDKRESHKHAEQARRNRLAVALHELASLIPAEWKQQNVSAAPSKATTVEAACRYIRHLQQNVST
# Experiment: relative binding free energy (BET-seq); higher = weaker binding
# Conditions: reference: library average
row,Sequence,relative binding free energy
1,TGTGACACGTGTCGGT,-0.2 kcal/mol
2,TATTGCACGTGATTTA,0.11 kcal/mol
3,ACGTGCACGTGATGTG,0.13 kcal/mol
4,TGGGGCACGTGCGAGT,-0.1 kcal/mol
5,TATGACACGTGTAAAT,0.24 kcal/mol
6,AATGACACGTGGCGGA,0.22 kcal/mol
7,TGATCCACGTGGTGGG,0 kcal/mol
8,AGGCGCACGTGGGGTG,-0.2 kcal/mol
9,GGAGGCACGTGCTGTT,-0.21 kcal/mol
10,TGTTTCACGTGGAGAG,0.26 kcal/mol
11,TTCGTCACGTGGTTAA,0.09 kcal/mol
12,CGACTCACGTGGGAGT,0.29 kcal/mol
13,CTTAACACGTGGGGTT,-0.15 kcal/mol
14,TTGGGCACGTGAGTGT,0.12 kcal/mol
15,TGTATCACGTGGTTCA,0.1 kcal/mol
16,ATTGTCACGTGTCTAA,0.24 kcal/mol
17,TGTAACACGTGGCCGG,-0.07 kcal/mol
18,ATGCGCACGTGGTTGG,-0.22 kcal/mol
19,TCAGGCACGTGGGTAG,-0.24 kcal/mol
20,TCAGGCACGTGTGAGA,0.06 kcal/mol
21,CGGGGCACGTGTAGTT,-0.02 kcal/mol
22,AGAGTCACGTGGCGGA,0.02 kcal/mol
23,CTGGTCACGTGGATAT,-0.02 kcal/mol
24,TCTATCACGTGAATTG,0.43 kcal/mol
25,TTGACCACGTGGTGTT,-0.15 kcal/mol
26,GTCGGCACGTGGAGGA,-0.06 kcal/mol

row,Sequence,relative binding free energy
1,AGTATCACGTGAATGG,0.03 kcal/mol
2,TTAGACACGTGTTAGG,0.06 kcal/mol
3,TACGTCACGTGGAAGG,0.02 kcal/mol
4,TTCAGCACGTGTGGAA,0.01 kcal/mol
5,GGTAGCACGTGAGTCG,0.21 kcal/mol
6,ATAGGCACGTGGGGGC,-0.32 kcal/mol
7,GTATTCACGTGTGGTT,0.41 kcal/mol
8,CGTACCACGTGGTGGG,-0.22 kcal/mol
9,TATAGCACGTGGGAAT,-0.12 kcal/mol
10,AGAGTCACGTGTGGCT,0.1 kcal/mol
11,GATATCACGTGATGTT,0.2 kcal/mol
12,TTTTTCACGTGGCTTT,0.14 kcal/mol
13,GTGGGCACGTGGTGGT,-0.02 kcal/mol
14,ATTGTCACGTGGTGTT,0.03 kcal/mol
15,AAGTTCACGTGTTAGC,0.42 kcal/mol
16,GCGTTCACGTGGTTCG,0.27 kcal/mol
17,GTAATCACGTGTGGGT,0.24 kcal/mol
18,ATAGACACGTGTAATG,0.16 kcal/mol
19,TTTTCCACGTGATGGT,0.22 kcal/mol
20,GTTTTCACGTGTGATA,0.3 kcal/mol
21,GTCAGCACGTGTCTGG,-0.01 kcal/mol
22,TTATACACGTGTCTTT,0.06 kcal/mol
23,CCTTGCACGTGGTGGG,-0.23 kcal/mol
24,AGTCGCACGTGTTTAG,0.07 kcal/mol
25,GGGTGCACGTGAGGGT,0.29 kcal/mol
26,ATGATCACGTGTGGGG,0.25 kcal/mol

row,Sequence,relative binding free energy
1,AATGGCACGTGTTGAT,-0.05 kcal/mol
2,TTGTGCACGTGTTTCT,-0.01 kcal/mol
3,TAGTTCACGTGTCGTA,0.24 kcal/mol
4,TTTTGCACGTGGTTAT,-0.04 kcal/mol
5,CTGTACACGTGGTTAG,-0.11 kcal/mol
6,TACAGCACGTGTTTTT,-0.01 kcal/mol
7,ATGAGCACGTGCATGG,-0.05 kcal/mol
8,TTCAGCACGTGTTGTG,-0.12 kcal/mol
9,GAATACACGTGGGTTA,-0.06 kcal/mol
10,TAAGCCACGTGTTGAT,0.17 kcal/mol
11,GTTTACACGTGGTCCG,0.11 kcal/mol
12,GGTTGCACGTGAAAGT,0.34 kcal/mol
13,TTGTACACGTGAAGTA,0.13 kcal/mol
14,GTTAGCACGTGATTAC,0.23 kcal/mol
15,TTAGGCACGTGGTTAA,-0.13 kcal/mol
16,TGGCGCACGTGAGATT,0.2 kcal/mol
17,GGAGACACGTGAGGGG,0.22 kcal/mol
18,TATTGCACGTGGTATA,-0.17 kcal/mol
19,GTTATCACGTGGATAT,0.19 kcal/mol
20,CAGGTCACGTGGGGTG,-0.07 kcal/mol
21,GGGGTCACGTGGTCTT,0.16 kcal/mol
22,TGTGGCACGTGCAATT,0.1 kcal/mol
23,TCGGGCACGTGTAAGA,0.18 kcal/mol
24,GGAGTCACGTGGCTTG,0.13 kcal/mol
25,GGACTCACGTGTTGGT,0.26 kcal/mol
26,GTTAGCACGTGCTGTT,-0.08 kcal/mol

row,Sequence,relative binding free energy
1,GGCGACACGTGGGAGT,-0.06 kcal/mol
2,GAGAGCACGTGGGGAA,-0.17 kcal/mol
3,ACTTACACGTGTGTGT,0.07 kcal/mol
4,CTATGCACGTGGAGGG,-0.06 kcal/mol
5,GACGGCACGTGTGAGG,0.12 kcal/mol
6,GGCAGCACGTGCGGTG,0.01 kcal/mol
7,TTTTTCACGTGAGCGA,0.52 kcal/mol
8,TAGTGCACGTGTTGAG,0.12 kcal/mol
9,TAAATCACGTGGAGGT,0.2 kcal/mol
10,GTGTGCACGTGTACAG,-0.06 kcal/mol
11,TAGGTCACGTGGGACG,0.06 kcal/mol
12,CGAGGCACGTGTCTGG,-0.06 kcal/mol
13,CTGTGCACGTGGTAGT,-0.1 kcal/mol
14,AGGTACACGTGAAATT,0.18 kcal/mol
15,TTGGTCACGTGGATCG,0.08 kcal/mol
16,TTCGACACGTGCAGGG,0.11 kcal/mol
17,TGGTCCACGTGTTCGT,-0.06 kcal/mol
18,CATTTCACGTGTTGTC,0.32 kcal/mol
19,TATACCACGTGGTGTA,-0.16 kcal/mol
20,GGTGGCACGTGGTTAG,-0.11 kcal/mol
21,TGTTTCACGTGCGACT,0.46 kcal/mol
22,GTTTGCACGTGACGGT,0.23 kcal/mol
23,TTGTGCACGTGGGCTC,-0.14 kcal/mol
24,AGGTGCACGTGTGTGC,0 kcal/mol
25,TTATTCACGTGAGCAG,0.51 kcal/mol
26,CTTTTCACGTGAAATT,0.36 kcal/mol

row,Sequence,relative binding free energy
1,CGGTTCACGTGGAGTG,0.32 kcal/mol
2,GATTGCACGTGGGCAG,-0.27 kcal/mol
3,TCGAACACGTGGGCGG,-0.02 kcal/mol
4,GGGTCCACGTGTGAGG,0.17 kcal/mol
5,GCGTGCACGTGGTAAG,-0.03 kcal/mol
6,ATGAACACGTGGGTGA,-0.18 kcal/mol
7,GTTTGCACGTGAGTAG,0.28 kcal/mol
8,ATTAGCACGTGTTATG,-0.01 kcal/mol
9,GCTGCCACGTGGTGTG,-0.16 kcal/mol
10,TGGATCACGTGATATA,0.36 kcal/mol
11,TTTATCACGTGGCGCA,0.2 kcal/mol
12,TAGGGCACGTGTAGGC,-0.02 kcal/mol
13,TTACGCACGTGGGGAG,-0.36 kcal/mol
14,TATTTCACGTGTGACG,0.3 kcal/mol
15,GGCCGCACGTGGTGTT,-0.21 kcal/mol
16,GGTGACACGTGGGCCT,-0.08 kcal/mol
17,TATTTCACGTGTGGCC,0.24 kcal/mol
18,CAGAGCACGTGAGTTT,0.25 kcal/mol
19,CGTTGCACGTGTCGTG,0 kcal/mol
20,TAGATCACGTGTTTGG,0.14 kcal/mol
21,CGGTGCACGTGAGGGT,0.23 kcal/mol
22,GGAGTCACGTGTATTC,0.29 kcal/mol
23,GTAAACACGTGGGTGT,-0.12 kcal/mol
24,GGTGGCACGTGCGTCG,-0.17 kcal/mol
25,GCTTTCACGTGGAGGG,0.27 kcal/mol
26,AGGTACACGTGTGCGA,0.12 kcal/mol

row,Sequence,relative binding free energy
1,TTCGTCACGTGGATGA,0.08 kcal/mol
2,TATCACACGTGGGGCG,-0.07 kcal/mol
3,AGTTTCACGTGGTTTG,0.26 kcal/mol
4,ATGGACACGTGGTAGT,0.11 kcal/mol
5,AAGATCACGTGTGTGA,0.04 kcal/mol
6,TGGGACACGTGAGGTA,0.13 kcal/mol
7,CGCGTCACGTGGGGCT,-0.06 kcal/mol
8,AGGAGCACGTGTTTGA,-0.06 kcal/mol
9,TGGGGCACGTGTAGTT,0.05 kcal/mol
10,GTTATCACGTGGCTGA,0.16 kcal/mol
11,GGTTGCACGTGTTCGA,0.06 kcal/mol
12,GTTGCCACGTGAGAGT,0.01 kcal/mol
13,CAGGTCACGTGGTTCG,0.09 kcal/mol
14,ATGTTCACGTGTTCTG,0.28 kcal/mol
15,GGTGTCACGTGGAAAC,0.31 kcal/mol
16,ATATTCACGTGGGCTT,0.08 kcal/mol
17,ATTCGCACGTGTTCTG,0.08 kcal/mol
18,GTTGACACGTGATTTA,0.14 kcal/mol
19,ATTGACACGTGCTGGT,-0.06 kcal/mol
20,ATGTACACGTGAGCTG,0.23 kcal/mol
21,GTTTTCACGTGGGTAC,0.35 kcal/mol
22,GCAGGCACGTGGTTAG,-0.27 kcal/mol
23,AGATTCACGTGGTAGG,0.24 kcal/mol
24,AGAAGCACGTGGTGTG,-0.1 kcal/mol
25,GATGACACGTGTGAGA,0.18 kcal/mol
26,TTCAGCACGTGGTTTA,-0.12 kcal/mol

row,Sequence,relative binding free energy
1,CGAGTCACGTGATTAT,0.29 kcal/mol
2,TCAGGCACGTGAAGGT,0.17 kcal/mol
3,ATATTCACGTGTGGGG,0.21 kcal/mol
4,GTTGACACGTGTCGTG,-0.03 kcal/mol
5,TAATTCACGTGTTTGA,0.13 kcal/mol
6,TGGCGCACGTGTACGG,-0.18 kcal/mol
7,TTATTCACGTGTTTTG,0.26 kcal/mol
8,GCGTGCACGTGGCTTT,-0.03 kcal/mol
9,TCGGTCACGTGGGTAA,0.09 kcal/mol
10,TGGGACACGTGGTCGG,-0.08 kcal/mol
11,TGGTTCACGTGGATAT,0.16 kcal/mol
12,TTGGTCACGTGGACCG,0.12 kcal/mol
13,AGGGCCACGTGTGGGT,0.04 kcal/mol
14,ACGTACACGTGGTGAG,0.1 kcal/mol
15,AGACACACGTGTGGGT,0.16 kcal/mol
16,TCTTACACGTGTAGTG,0.09 kcal/mol
17,GAACGCACGTGTTTTG,0.06 kcal/mol
18,AGAGGCACGTGCGGTG,-0.1 kcal/mol
19,TAGTACACGTGATGGG,0.13 kcal/mol
20,CTGGGCACGTGCTTGG,-0.07 kcal/mol
21,TTTGTCACGTGGAGGT,0.12 kcal/mol
22,TCAAGCACGTGGGGGC,-0.19 kcal/mol
23,ATGGGCACGTGCGTCG,-0.28 kcal/mol
24,GGTGCCACGTGGTATA,-0.13 kcal/mol
25,GCTTGCACGTGTAAGT,0.13 kcal/mol
26,CGAGGCACGTGGTGCT,-0.25 kcal/mol

row,Sequence,relative binding free energy
1,TGACTCACGTGCGGGT,0.19 kcal/mol
2,CGTGGCACGTGCGGGG,-0.11 kcal/mol
3,TATGTCACGTGCGTAA,0.03 kcal/mol
4,GTTAACACGTGGTCGG,0.03 kcal/mol
5,GGAGTCACGTGCTTGG,0.24 kcal/mol
6,TGGGTCACGTGTCTCG,0.17 kcal/mol
7,ATTCGCACGTGTTATG,-0.14 kcal/mol
8,ACTGGCACGTGATTTG,0.04 kcal/mol
9,AGGGGCACGTGAGCAG,0.11 kcal/mol
10,TGGATCACGTGGCGGT,0.04 kcal/mol
11,TGTTCCACGTGAGAGG,0.09 kcal/mol
12,TGCGTCACGTGAGGGG,0.31 kcal/mol
13,GTCTTCACGTGAGTGT,0.38 kcal/mol
14,GTGTACACGTGACGGA,0.18 kcal/mol
15,GGGTACACGTGGTGGA,-0.01 kcal/mol
16,TGTTGCACGTGTGTTA,0.02 kcal/mol
17,TCAGGCACGTGGGACT,-0.09 kcal/mol
18,TTTAGCACGTGGTATC,-0.09 kcal/mol
19,GGCATCACGTGATGTG,0.16 kcal/mol
20,TCGTCCACGTGGTTGG,0 kcal/mol
21,GCTTGCACGTGCTGGG,0.07 kcal/mol
22,GCGGTCACGTGGTGAT,0.04 kcal/mol
23,TTTAGCACGTGGTTAG,-0.12 kcal/mol
24,TAGTTCACGTGTTTTC,0.23 kcal/mol
25,ATCTTCACGTGGGGGG,0.33 kcal/mol
26,TATGCCACGTGTTTAT,-0.07 kcal/mol

row,Sequence,relative binding free energy
1,TGGTGCACGTGGGGTG,-0.1 kcal/mol
2,AGCGGCACGTGATAGT,-0.01 kcal/mol
3,TCGGACACGTGTATGT,0.14 kcal/mol
4,CAATGCACGTGGTAGG,-0.06 kcal/mol
5,GTGGACACGTGGAAAG,0.28 kcal/mol
6,GTGGTCACGTGTTTTG,0.25 kcal/mol
7,GTGGACACGTGCGAGT,-0.12 kcal/mol
8,GTATACACGTGGACGG,0.09 kcal/mol
9,TGTGACACGTGGACTG,-0.07 kcal/mol
10,AGTTCCACGTGGGCGT,-0.11 kcal/mol
11,AGCTACACGTGGGTGG,-0.18 kcal/mol
12,TGTGTCACGTGCCGTT,0.14 kcal/mol
13,GTTGTCACGTGCATGT,0.19 kcal/mol
14,TGATGCACGTGGCATT,-0.08 kcal/mol
15,TTTGGCACGTGCTATT,-0.13 kcal/mol
16,GTTTGCACGTGGATAT,-0.01 kcal/mol
17,GTCAGCACGTGGGTGG,-0.19 kcal/mol
18,GTGAGCACGTGCTGGT,-0.03 kcal/mol
19,TATAACACGTGGTAGG,-0.05 kcal/mol
20,TTATACACGTGTCGTA,0.09 kcal/mol
21,TGCGACACGTGATGGT,0.17 kcal/mol
22,AGTGTCACGTGGGCGG,-0.12 kcal/mol
